# From patent US20200085917A1 (UNIVERSITY OF PITTSBURGH OF THE COMMONWEALTH SYSTEM OF …, published 2020)
# T1: Rtn1_IPI:IPI00395193.1 (mouse, UniProt Q8K0T0 1-780, limits assumed)
# T1 sequence (looked up): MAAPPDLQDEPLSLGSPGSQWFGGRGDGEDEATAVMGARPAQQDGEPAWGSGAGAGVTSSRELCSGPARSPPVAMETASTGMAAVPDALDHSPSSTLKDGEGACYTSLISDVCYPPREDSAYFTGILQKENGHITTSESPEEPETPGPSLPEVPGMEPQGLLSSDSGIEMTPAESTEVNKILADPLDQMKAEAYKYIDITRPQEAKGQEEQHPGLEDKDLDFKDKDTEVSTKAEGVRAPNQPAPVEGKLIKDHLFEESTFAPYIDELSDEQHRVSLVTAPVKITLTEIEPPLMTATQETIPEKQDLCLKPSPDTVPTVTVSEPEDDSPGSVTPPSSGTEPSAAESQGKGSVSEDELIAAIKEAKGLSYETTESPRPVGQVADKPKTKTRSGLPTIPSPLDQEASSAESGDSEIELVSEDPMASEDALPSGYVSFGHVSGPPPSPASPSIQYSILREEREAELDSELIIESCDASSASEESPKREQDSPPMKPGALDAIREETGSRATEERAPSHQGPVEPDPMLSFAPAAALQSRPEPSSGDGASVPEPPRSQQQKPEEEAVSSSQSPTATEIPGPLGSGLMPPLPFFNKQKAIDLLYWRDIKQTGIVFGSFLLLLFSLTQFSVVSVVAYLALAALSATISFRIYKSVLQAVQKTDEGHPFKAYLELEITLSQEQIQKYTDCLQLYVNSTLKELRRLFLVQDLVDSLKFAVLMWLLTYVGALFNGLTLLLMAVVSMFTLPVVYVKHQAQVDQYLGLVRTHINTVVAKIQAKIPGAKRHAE
# Biological target: T1, Rtn1_IPI:IPI00395193.1
# Assay: GST pull-down, LC-MS/MS
binder,measurement,value
"GST alone (other, Negative control of the pull-downs; also called control GST) not shown",binding result,no binding
